According to patent publication US10780047B2, “Method of providing birth control” (The Population Council, Inc., priority 2019, dated 2020):

Assay: PK study in females with BMI <25 and BMI >25 kg/m^2
Type: in vivo, human
Conditions: 18 females BMI <25 vs 21 females BMI >25 kg/m^2; vaginal system

C=C1C[C@H]2[C@@H]3CCC4=CC(=O)CC[C@@H]4[C@H]3CC[C@]2(C)[C@@]1(OC(C)=O)C(C)=O [SA, 16-methylene-17α-acetoxy-19-nor-pregn-4-ene-3,20-dione]
decrease in the systemic exposure (AUC6-21day) between the two BMI groups: up to 16%

C#C[C@]1(O)CC[C@H]2[C@@H]3CCc4cc(O)ccc4[C@H]3CC[C@@]21C [EE, 19-nor-17α-pregna-1,3,5(10)-trien-20-yne-3,17-diol]
decrease in the systemic exposure (AUC6-21day) between the two BMI groups: ≤ 33%
